Test results from the supplement of paper PMC4967469.
By IC50 is meant the dose at which the fit gives 50% viability; where the fit passes the top or lowest dose, that dose stands as a limit. For AUC the same curve is integrated over the 256-fold range of doses and scaled to a fraction; values near 1 show little effect. For some of these results: An inferred top dose comes from the curve model; the source does not state it. For some of these results: Where an entry number is given, a second screen of the drug exists; the two often differ.

How the values were obtained:
Assay in all cases: Viability of human cancer cell lines after 72 h of drug (GDSC screen)
[1] = compound: Cn1cc(C2=C(c3ccc(Cl)cc3Cl)C(=O)NC2=O)c2ccccc21 [SB 216763]; conditions: top dose 10 µM; top dose inferred
Procedure: (§1)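 Human cancer cell lines in 384-well plates, medium with 10% serum, drug for 72 h over a 256-fold dose range (nine 2-fold or five 4-fold steps up to the top dose). Adherent lines were fixed and stained with the nucleic acid dye Syto60, suspension lines read with resazurin; signal relative to control wells, capped at 0 and 100%. One two-parameter sigmoid per drug and line, fitted in a mixed model over all curves with the slope shared within a line.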

[2] = compound: CS(=O)(=O)N1CCN(Cc2cc3nc(-c4cccc5[nH]ncc45)nc(N4CCOCC4)c3s2)CC1 [GDC0941]; conditions: top dose 4 µM; screen: GDSC drug entry 1527; top dose inferred
Procedure: as §1

[3] = compound: CC(C)[C@H](C(=O)Nc1ccc(C(=O)NO)cc1)c1ccccc1 [AR-42]; conditions: top dose 5.12 µM; top dose inferred
Procedure: as §1

[4] = compound: Cc1ccc(Nc2nccc(N(C)c3ccc4c(C)n(C)nc4c3)n2)cc1S(N)(=O)=O [Pazopanib]; conditions: top dose 8 µM
Procedure: as §1

[5] = compound: C[C@]12O[C@H](C[C@]1(O)CO)n1c3ccccc3c3c4c(c5c6ccccc6n2c5c31)CNC4=O [CEP-701]; conditions: top dose 2 µM; top dose inferred
Procedure: as §1

[6] = compound: CC(C)C[C@@H](C=O)NC(=O)[C@H](CC(C)C)NC(=O)[C@H](CC(C)C)NC(=O)OCc1ccccc1 [MG-132]; conditions: top dose 1 µM
Procedure: as §1

Cell Line | AUC [1] | IC50 [1] | AUC [2] | IC50 [2] | AUC [3] | IC50 [3] | AUC [4] | IC50 [4] | AUC [5] | IC50 [5] | AUC [6] | IC50 [6]
NCI-H1581 (large cell lung carcinoma, semi-adherent) | 0.99 | > 10 µM | 0.957 | > 4 µM | 0.424 | 0.202 µM | 0.879 | 7.08 µM | 0.788 | 0.8 µM | 0.912 | > 1 µM
NCI-H1648 (lung adenocarcinoma, adherent) | 0.961 | > 10 µM | 0.612 | 0.518 µM | 0.477 | 0.276 µM | 0.978 | > 8 µM | 0.944 | > 2 µM | 0.893 | > 1 µM
NCI-H1666 (lung adenocarcinoma, semi-adherent) | 0.986 | > 10 µM | 0.565 | 0.384 µM | 0.649 | 0.863 µM | 0.987 | > 8 µM | 0.857 | – | 0.958 | > 1 µM
NCI-H1694 (small cell lung carcinoma, suspension) | 0.989 | > 10 µM | 0.823 | 2.34 µM | 0.42 | 0.194 µM | 0.98 | > 8 µM | 0.736 | 0.587 µM | 0.956 | > 1 µM
NCI-H1838 (lung adenocarcinoma, adherent) | 0.942 | > 10 µM | 0.903 | > 4 µM | 0.922 | > 5.12 µM | 0.983 | > 8 µM | 0.891 | > 2 µM | 0.986 | > 1 µM
NCI-H1869 (lung squamous cell carcinoma, adherent) | 0.984 | > 10 µM | 0.902 | > 4 µM | 0.692 | 1.2 µM | 0.981 | > 8 µM | 0.888 | > 2 µM | 0.762 | 0.402 µM
NCI-H1876 (small cell lung carcinoma, adherent) | 0.986 | > 10 µM | 0.749 | 1.31 µM | 0.611 | 0.647 µM | 0.957 | > 8 µM | 0.778 | 0.818 µM | 0.834 | 0.66 µM
NCI-H2081 (small cell lung carcinoma, suspension) | 0.986 | > 10 µM | 0.986 | > 4 µM | 0.78 | 2.23 µM | 0.984 | > 8 µM | 0.803 | 1.06 µM | 0.902 | > 1 µM
NCI-H2141 (small cell lung carcinoma, suspension) | 0.991 | > 10 µM | 0.905 | > 4 µM | 0.705 | 1.19 µM | 0.991 | > 8 µM | 0.904 | > 2 µM | 0.838 | 0.646 µM
NCI-H2227 (small cell lung carcinoma, semi-adherent) | 0.985 | > 10 µM | 0.74 | 1.35 µM | 0.29 | 0.0747 µM | 0.981 | > 8 µM | 0.688 | 0.453 µM | 0.817 | 0.657 µM
NCI-SNU-1 (stomach, suspension) | 0.986 | > 10 µM | 0.953 | > 4 µM | 0.539 | 0.41 µM | 0.987 | > 8 µM | 0.939 | > 2 µM | 0.968 | > 1 µM
NCI-SNU-5 (stomach, suspension) | 0.989 | > 10 µM | 0.65 | 0.656 µM | 0.811 | 2.76 µM | 0.986 | > 8 µM | 0.823 | 1.2 µM | 0.866 | 0.914 µM
NH-12 (neuroblastoma, adherent) | 0.897 | > 10 µM | 0.853 | 3.73 µM | 0.27 | 0.0644 µM | 0.9 | > 8 µM | 0.553 | 0.177 µM | 0.971 | > 1 µM
NMC-G1 (glioma, adherent) | 0.854 | > 10 µM | 0.807 | 2.63 µM | 0.707 | 1.42 µM | 0.784 | 4.23 µM | 0.668 | – | 0.821 | 0.759 µM
NOS-1 (osteosarcoma, adherent) | 0.969 | > 10 µM | 0.716 | 1.19 µM | 0.382 | 0.141 µM | 0.568 | 0.802 µM | 0.761 | 0.863 µM | 0.852 | > 1 µM
OCI-AML2 (acute myeloid leukaemia, suspension) | 0.995 | > 10 µM | 0.937 | 3.99 µM | 0.326 | 0.12 µM | 0.969 | > 8 µM | 0.37 | 0.0605 µM | 0.741 | 0.244 µM
OCI-AML5 (acute myeloid leukaemia, suspension) | 0.989 | > 10 µM | 0.755 | 1.25 µM | 0.271 | 0.0766 µM | 0.97 | > 8 µM | 0.554 | 0.173 µM | 0.87 | 0.793 µM

Cell Line | AUC [1] | IC50 [1] | AUC [2] | IC50 [2] | AUC [3] | IC50 [3] | AUC [4] | IC50 [4] | AUC [5] | IC50 [5] | AUC [6] | IC50 [6]
OCI-M1 (acute myeloid leukaemia, suspension) | 0.994 | > 10 µM | 0.995 | > 4 µM | 0.199 | 0.0558 µM | 0.991 | > 8 µM | 0.506 | 0.13 µM | 0.666 | 0.16 µM
P30-OHK (lymphoblastic leukaemia, suspension) | 0.991 | > 10 µM | 0.265 | 0.0615 µM | 0.16 | 0.0377 µM | 0.897 | 6.96 µM | 0.337 | 0.0481 µM | 0.991 | > 1 µM
P32-ISH (Burkitt lymphoma, suspension) | 0.961 | > 10 µM | 0.746 | 1.01 µM | 0.336 | 0.127 µM | 0.921 | 6.87 µM | 0.534 | 0.151 µM | 0.793 | 0.336 µM
PF-382 (T-cell lymphoblastic leukaemia, suspension) | 0.987 | > 10 µM | 0.983 | > 4 µM | 0.31 | 0.102 µM | 0.97 | > 8 µM | 0.59 | 0.214 µM | 0.672 | 0.176 µM
RC-K8 (B-cell lymphoma, suspension) | 0.993 | > 10 µM | 0.979 | > 4 µM | 0.7 | 1.07 µM | 0.959 | > 8 µM | 0.965 | > 2 µM | 0.927 | > 1 µM
REH (B-cell leukaemia, suspension) | 0.974 | > 10 µM | 0.532 | 0.304 µM | 0.39 | 0.162 µM | 0.947 | > 8 µM | 0.597 | 0.228 µM | 0.987 | > 1 µM
RF-48 (stomach, adherent) | 0.983 | > 10 µM | 0.932 | > 4 µM | 0.255 | 0.0575 µM | 0.972 | > 8 µM | 0.761 | 0.792 µM | 0.812 | 0.616 µM
RH-1 (rhabdomyosarcoma, adherent) | 0.991 | > 10 µM | 0.702 | 0.826 µM | 0.338 | 0.123 µM | 0.964 | > 8 µM | 0.542 | 0.16 µM | 0.95 | > 1 µM
RL (B-cell lymphoma, suspension) | 0.989 | > 10 µM | 0.834 | 2.3 µM | 0.401 | 0.176 µM | 0.986 | > 8 µM | 0.633 | 0.281 µM | 0.967 | > 1 µM
ROS-50 (B-cell leukaemia, suspension) | 0.973 | > 10 µM | 0.983 | > 4 µM | 0.539 | 0.42 µM | 0.983 | > 8 µM | 0.894 | > 2 µM | 0.915 | > 1 µM
Raji (Burkitt lymphoma, suspension) | 0.99 | > 10 µM | 0.887 | 3.98 µM | 0.449 | 0.234 µM | 0.988 | > 8 µM | 0.918 | > 2 µM | 0.869 | 0.818 µM
Ramos-2G6-4C10 (Burkitt lymphoma, suspension) | 0.959 | > 10 µM | 0.644 | 0.584 µM | 0.371 | 0.149 µM | 0.97 | > 8 µM | 0.54 | 0.158 µM | 0.735 | 0.259 µM
SBC-1 (small cell lung carcinoma, suspension) | 0.953 | > 10 µM | 0.662 | 0.691 µM | 0.503 | 0.325 µM | 0.973 | > 8 µM | 0.793 | 0.876 µM | 0.94 | > 1 µM
SCH (stomach, adherent) | 0.986 | > 10 µM | 0.827 | 2.71 µM | 0.963 | > 5.12 µM | 0.968 | > 8 µM | 0.792 | 0.982 µM | 0.986 | > 1 µM
SF126 (glioma, adherent) | 0.96 | > 10 µM | 0.907 | > 4 µM | 0.619 | 0.692 µM | 0.762 | 3.01 µM | 0.764 | 0.765 µM | 0.738 | 0.313 µM
SF539 (glioma, adherent) | 0.935 | > 10 µM | 0.81 | 1.84 µM | 0.607 | 0.611 µM | 0.972 | > 8 µM | 0.57 | 0.19 µM | 0.989 | > 1 µM
SHP-77 (small cell lung carcinoma, semi-adherent) | 0.991 | > 10 µM | 0.99 | > 4 µM | 0.694 | 1.04 µM | 0.982 | > 8 µM | 0.889 | 1.85 µM | 0.956 | > 1 µM
